# Results published in the supplement of paper PMC8728848.
# This is one part of the list.
# Assays:
# Test in all cases: glycan array binding signal (z-score within array); higher = stronger binding
# Conditions in all cases: glycan notation: IUPAC condensed, linker removed
# [1] = target: GlcA(b1-3)Gal(b1-4)GlcNAc(b1-3)Gal(b1-4)Glc
# Summary of the method: (§1)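 Arrays were curated from the Consortium for Functional Glycomics database, 3228 in total, and kept only where the protein sequence was available. Binding is expressed as a within-array Z-score. This score was averaged across arrays of the same protein sequence at different concentrations or buffers and across linkers, and negative values can be read as non-binding.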
# [2] = target: GlcA(b1-3)Gal(b1-4)GlcNAc(b1-3)Gal(b1-4)GlcNAc(b1-3)Gal(b1-4)Glc
# Summary of the method: as §1
# GlcA(b1-3)GlcNAc = target: GlcA(b1-3)GlcNAc
# Summary of the method: as §1
# [3] = target: GlcA(b1-3)GlcNAc(b1-4)GlcA(b1-3)GlcNAc
# Summary of the method: as §1
# [4] = target: GlcA(b1-3)GlcNAc(b1-4)GlcA(b1-3)GlcNAc(b1-4)GlcA(b1-3)GlcNAc(b1-4)GlcA(b1-3)GlcNAc(b1-4)GlcA(b1-3)GlcNAc(b1-4)GlcA(b1-3)GlcNAc(b1-4)GlcA(b1-3)GlcNAc
# Summary of the method: as §1
# GlcA(b1-6)Gal = target: GlcA(b1-6)Gal
# Summary of the method: as §1
# GlcA3S(b1-3)Gal = target: GlcA3S(b1-3)Gal
# Summary of the method: as §1
# GlcA3S(b1-3)Gal(b1-4)Glc = target: GlcA3S(b1-3)Gal(b1-4)Glc
# Summary of the method: as §1
# [5] = target: GlcA3S(b1-3)Gal(b1-4)GlcNAc(b1-2)Man
# Summary of the method: as §1
# [6] = target: GlcA3S(b1-3)Gal(b1-4)GlcNAc(b1-3)Gal(b1-4)Glc
# Summary of the method: as §1
# [7] = target: GlcA3S(b1-3)Gal(b1-4)GlcNAc(b1-3)Gal(b1-4)GlcNAc(b1-3)Gal(b1-4)Glc
# Summary of the method: as §1
# [8] = target: GlcNAc(a1-3)Gal(b1-4)GlcNAc
# Summary of the method: as §1
# GlcNAc(a1-4)Gal = target: GlcNAc(a1-4)Gal
# Summary of the method: as §1
# [9] = target: GlcNAc(a1-4)Gal(b1-3)GlcNAc
# Summary of the method: as §1
# [10] = target: GlcNAc(a1-4)Gal(b1-3)[Fuc(a1-2)]Gal
# Summary of the method: as §1
# [11] = target: GlcNAc(a1-4)Gal(b1-4)GalNAc
# Summary of the method: as §1
# [12] = target: GlcNAc(a1-4)Gal(b1-4)GlcNAc
# Summary of the method: as §1
# [13] = target: GlcNAc(a1-4)Gal(b1-4)GlcNAc(b1-3)Gal(b1-4)Glc
# Summary of the method: as §1
# [14] = target: GlcNAc(a1-4)Gal(b1-4)GlcNAc(b1-3)Gal(b1-4)GlcNAc
# Summary of the method: as §1
# [15] = target: GlcNAc(a1-4)Gal(b1-4)GlcNAc(b1-3)Gal(b1-4)GlcNAc(b1-3)Gal(b1-4)GlcNAc
# Summary of the method: as §1
# [16] = target: GlcNAc(a1-4)Gal(b1-4)GlcNAc(b1-3)Gal(b1-4)[Fuc(a1-3)]GlcNAc(b1-3)Gal(b1-4)[Fuc(a1-3)]GlcNAc
# Summary of the method: as §1
# [17] = target: GlcNAc(a1-6)Gal(b1-4)GlcNAc
# Summary of the method: as §1
# GlcNAc(b1-2)Fuc = target: GlcNAc(b1-2)Fuc
# Summary of the method: as §1
# [18] = target: GlcNAc(b1-2)Gal(b1-3)GalNAc
# Summary of the method: as §1
# [19] = target: GlcNAc(b1-2)Man(a1-3)[GlcNAc(b1-2)Man(a1-6)]Man(b1-4)GlcNAc(b1-4)GlcNAc
# Summary of the method: as §1
# [20] = target: GlcNAc(b1-2)Man(a1-3)[GlcNAc(b1-2)Man(a1-6)]Man(b1-4)GlcNAc(b1-4)[Fuc(a1-6)]GlcNAc
# Summary of the method: as §1
# [21] = target: GlcNAc(b1-2)Man(a1-3)[GlcNAc(b1-2)Man(a1-6)][GlcNAc(b1-4)]Man(b1-4)GlcNAc(b1-4)GlcNAc
# Summary of the method: as §1
# [22] = target: GlcNAc(b1-2)Man(a1-3)[GlcNAc(b1-4)][GlcNAc(b1-2)Man(a1-6)]Man(b1-4)GlcNAc(b1-4)GlcNAc
# Summary of the method: as §1
# [23] = target: GlcNAc(b1-2)Man(a1-3)[GlcNAc(b1-4)][GlcNAc(b1-2)Man(a1-6)]Man(b1-4)GlcNAc(b1-4)[Fuc(a1-6)]GlcNAc
# Summary of the method: as §1
# [24] = target: GlcNAc(b1-2)Man(a1-3)[Man(a1-3)[Man(a1-6)]Man(a1-6)][GlcNAc(b1-4)]Man(b1-4)GlcNAc(b1-4)GlcNAc
# Summary of the method: as §1
# [25] = target: GlcNAc(b1-2)[GlcNAc(b1-4)]Man(a1-3)[GlcNAc(b1-2)Man(a1-6)]Man(b1-4)GlcNAc(b1-4)GlcNAc
# Summary of the method: as §1
# [26] = target: GlcNAc(b1-2)[GlcNAc(b1-4)]Man(a1-3)[GlcNAc(b1-2)Man(a1-6)][GlcNAc(b1-4)]Man(b1-4)GlcNAc(b1-4)GlcNAc
# Summary of the method: as §1
# [27] = target: GlcNAc(b1-2)[GlcNAc(b1-4)]Man(a1-3)[GlcNAc(b1-2)[GlcNAc(b1-4)][GlcNAc(b1-6)]Man(a1-6)][GlcNAc(b1-4)]Man(b1-4)GlcNAc(b1-4)GlcNAc
# Summary of the method: as §1
# [28] = target: GlcNAc(b1-2)[GlcNAc(b1-4)]Man(a1-3)[GlcNAc(b1-2)[GlcNAc(b1-6)]Man(a1-6)]Man(b1-4)GlcNAc(b1-4)GlcNAc
# Summary of the method: as §1
# [29] = target: GlcNAc(b1-2)[GlcNAc(b1-4)]Man(a1-3)[GlcNAc(b1-4)][GlcNAc(b1-2)Man(a1-6)]Man(b1-4)GlcNAc(b1-4)GlcNAc
# Summary of the method: as §1
# [30] = target: GlcNAc(b1-2)[GlcNAc(b1-4)]Man(a1-3)[GlcNAc(b1-4)][GlcNAc(b1-2)[GlcNAc(b1-6)]Man(a1-6)]Man(b1-4)GlcNAc(b1-4)GlcNAc
# Summary of the method: as §1
# [31] = target: GlcNAc(b1-2)[GlcNAc(b1-4)]Man(a1-3)[GlcNAc(b1-4)][GlcNAc(b1-2)[GlcNAc(b1-6)]Man(a1-6)]Man(b1-4)GlcNAc(b1-4)[Fuc(a1-6)]GlcNAc
# Summary of the method: as §1
# [32] = target: GlcNAc(b1-2)[GlcNAc(b1-6)]Man(a1-6)[GlcNAc(b1-2)Man(a1-3)]Man(b1-4)GlcNAc(b1-4)GlcNAc
# Summary of the method: as §1
# [33] = target: GlcNAc(b1-2)[GlcNAc(b1-6)]Man(a1-6)[GlcNAc(b1-2)Man(a1-3)]Man(b1-4)GlcNAc(b1-4)[Fuc(a1-6)]GlcNAc
# Summary of the method: as §1
# [34] = target: GlcNAc(b1-2)[GlcNAc(b1-6)]Man(a1-6)[GlcNAc(b1-4)][GlcNAc(b1-2)Man(a1-3)]Man(b1-4)GlcNAc(b1-4)GlcNAc
# Summary of the method: as §1
# GlcNAc(b1-3)Fuc = target: GlcNAc(b1-3)Fuc
# Summary of the method: as §1
# GlcNAc(b1-3)Gal = target: GlcNAc(b1-3)Gal
# Summary of the method: as §1
# [35] = target: GlcNAc(b1-3)Gal(b1-3)GalNAc
# Summary of the method: as §1
# GlcNAc(b1-3)Gal(b1-4)Glc = target: GlcNAc(b1-3)Gal(b1-4)Glc
# Summary of the method: as §1
# [36] = target: GlcNAc(b1-3)Gal(b1-4)GlcNAc
# Summary of the method: as §1
binder,measurement,setting,value
"CLEC5A (Homo sapiens), Q9NY25 (protein) MNWHMIISGLIVVVLKVVGMTLFLLYFPQIFNKSNDGFTTTRSYGTVSQIFGSSSPSPNGFITTRSYGTVCPKDWEFYQARCFFLSTSESSWNESRDFCKGKGSTLAIVNTPEKLKFLQDITDAEKYFIGLIYHREEKRWRWINNSVFNGNVTNQNQNFNCATIGLTKTFDAASCDISYRRICEKNAK",glycan array binding signal (z-score),[1],-0.32
same,glycan array binding signal (z-score),[2],-0.32
same,glycan array binding signal (z-score),GlcA(b1-3)GlcNAc,-0.247
same,glycan array binding signal (z-score),[3],-0.32
same,glycan array binding signal (z-score),[4],-0.32
same,glycan array binding signal (z-score),GlcA(b1-6)Gal,-0.415
same,glycan array binding signal (z-score),GlcA3S(b1-3)Gal,-0.32
same,glycan array binding signal (z-score),GlcA3S(b1-3)Gal(b1-4)Glc,-0.32
same,glycan array binding signal (z-score),[5],-0.221
same,glycan array binding signal (z-score),[6],-0.074
same,glycan array binding signal (z-score),[7],-0.32
same,glycan array binding signal (z-score),[8],-0.053
same,glycan array binding signal (z-score),GlcNAc(a1-4)Gal,0.74
same,glycan array binding signal (z-score),[9],-0.421
same,glycan array binding signal (z-score),[10],-0.32
same,glycan array binding signal (z-score),[11],-0.041
same,glycan array binding signal (z-score),[12],-0.125
same,glycan array binding signal (z-score),[13],0.007
same,glycan array binding signal (z-score),[14],-0.015
same,glycan array binding signal (z-score),[15],-0.06
same,glycan array binding signal (z-score),[16],1.74
same,glycan array binding signal (z-score),[17],0.38
same,glycan array binding signal (z-score),GlcNAc(b1-2)Fuc,-0.32
same,glycan array binding signal (z-score),[18],-0.325
same,glycan array binding signal (z-score),[19],-0.226
same,glycan array binding signal (z-score),[20],0.392
same,glycan array binding signal (z-score),[21],0.355
same,glycan array binding signal (z-score),[22],-0.109
same,glycan array binding signal (z-score),[23],-0.189
same,glycan array binding signal (z-score),[24],-0.32
same,glycan array binding signal (z-score),[25],-0.25
same,glycan array binding signal (z-score),[26],-0.32
same,glycan array binding signal (z-score),[27],-0.32
same,glycan array binding signal (z-score),[28],-0.32
same,glycan array binding signal (z-score),[29],0.115
same,glycan array binding signal (z-score),[30],-0.079
same,glycan array binding signal (z-score),[31],-0.225
same,glycan array binding signal (z-score),[32],-0.159
same,glycan array binding signal (z-score),[33],-0.209
same,glycan array binding signal (z-score),[34],-0.217
same,glycan array binding signal (z-score),GlcNAc(b1-3)Fuc,-0.263
same,glycan array binding signal (z-score),GlcNAc(b1-3)Gal,-0.324
same,glycan array binding signal (z-score),[35],0.092
same,glycan array binding signal (z-score),GlcNAc(b1-3)Gal(b1-4)Glc,6.6
same,glycan array binding signal (z-score),[36],-0.074
